# Out of some 310,000 compounds screened, about 14,000 (4.5%) showed an effect of 50% or more. Effects have a minus sign here. Some of the results follow.
# Biological target: human ether-à-go-go-related gene (hERG) potassium channel (human, UniProt Q12809)
# Assay: primary screen, population patch clamp on CHO cells stably expressing hERG
# 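Further: peak tail current of the secondary pulse compared with the same well before compound.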
# Chain of human ether-à-go-go-related gene (hERG) potassium channel (Q12809 whole entry, looked up): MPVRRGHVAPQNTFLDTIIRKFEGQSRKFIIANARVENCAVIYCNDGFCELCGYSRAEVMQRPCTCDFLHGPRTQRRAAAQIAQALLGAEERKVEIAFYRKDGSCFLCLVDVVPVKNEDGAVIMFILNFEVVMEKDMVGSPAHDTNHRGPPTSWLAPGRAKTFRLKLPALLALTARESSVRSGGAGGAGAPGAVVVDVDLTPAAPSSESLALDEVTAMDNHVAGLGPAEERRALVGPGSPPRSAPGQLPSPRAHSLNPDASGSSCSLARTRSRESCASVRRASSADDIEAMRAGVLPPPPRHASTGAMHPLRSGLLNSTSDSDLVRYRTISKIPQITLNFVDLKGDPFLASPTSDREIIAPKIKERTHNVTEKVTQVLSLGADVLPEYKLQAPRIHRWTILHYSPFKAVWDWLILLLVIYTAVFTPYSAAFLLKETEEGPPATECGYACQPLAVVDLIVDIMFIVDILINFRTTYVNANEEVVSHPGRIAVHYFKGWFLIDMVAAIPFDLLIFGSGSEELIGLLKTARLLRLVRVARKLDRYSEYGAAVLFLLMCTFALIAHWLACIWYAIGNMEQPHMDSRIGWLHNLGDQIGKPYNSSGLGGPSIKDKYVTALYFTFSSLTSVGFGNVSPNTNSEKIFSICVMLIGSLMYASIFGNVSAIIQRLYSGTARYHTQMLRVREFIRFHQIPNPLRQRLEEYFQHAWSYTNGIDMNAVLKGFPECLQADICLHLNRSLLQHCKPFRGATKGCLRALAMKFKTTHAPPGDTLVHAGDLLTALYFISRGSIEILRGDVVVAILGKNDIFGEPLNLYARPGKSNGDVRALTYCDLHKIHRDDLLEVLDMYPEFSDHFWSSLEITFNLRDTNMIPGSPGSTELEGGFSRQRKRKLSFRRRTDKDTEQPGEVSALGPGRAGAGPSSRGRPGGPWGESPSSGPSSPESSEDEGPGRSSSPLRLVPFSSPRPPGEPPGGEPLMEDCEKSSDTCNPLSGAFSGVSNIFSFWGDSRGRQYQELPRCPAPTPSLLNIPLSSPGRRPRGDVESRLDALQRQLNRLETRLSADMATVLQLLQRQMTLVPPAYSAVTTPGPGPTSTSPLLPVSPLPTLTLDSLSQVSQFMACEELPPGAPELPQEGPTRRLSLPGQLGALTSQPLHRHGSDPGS
row,SMILES,"hERG current change (%, negative = inhibition) at 10uM [%]"
1,CCN(CC(=O)NC1CCS(=O)(=O)C1)Cc1nc2c(Br)cc(Br)cc2c(=O)[nH]1 (stereo not drawn),-0.153
2,C/C(=N\NC(=O)C1COc2ccccc2O1)c1ccc(N2CCOCC2)cc1 (stereo not drawn),-11.1
3,O=C(NCCc1ccccc1)c1ccc(Br)o1,-15.4
4,Cc1ccc(C)c(NC(=O)CN(C)C(=O)[C@@H](NC(N)=O)C(C)C)c1,19
5,Cc1ccc(NC(=O)c2cnccn2)c(Br)c1,12.8
6,CCOC(=O)c1cc2nc(Nc3ccc(OC)cc3)sc2s1,0.75
7,CSc1cccc(NC(=O)COC(=O)c2ccccn2)c1,-5.55
8,CCc1c(C)sc(NC(=S)Nc2cccnc2)c1C(=O)OC,15
9,CCCN1CCC(=O)N([C@H](CO)CC(C)C)CC1,20
10,CC(C)C(=O)Nc1cccc(C(=O)Nc2nncs2)c1,-6
11,COC(c1ccccc1)c1c(-c2ccccc2)nn(C)c1Cl (stereo not drawn),-8.59
12,COCCNC(=O)C(c1cccs1)N(C(=O)Cn1nnc2ccccc21)c1ccc(OC)cc1 (stereo not drawn),3.99
13,CCn1c(CCNC(=O)c2ccco2)nc2ccccc21,-3.04
14,CC(C)c1[nH]c(=O)c(C#N)c2c1CSC(C)(C)C2,8.38
15,CC(NS(=O)(=O)c1ccc(Br)cc1)c1ccccc1 (stereo not drawn),10.6
16,COC(=O)COc1cc(OCC(=O)OC)c2c(C)c(Cl)c(=O)oc2c1,3.64
17,CCCNC(=O)N1[C@H]2CC[C@@H]1C(C(=O)OC)=C(c1ccc(OC(F)(F)F)cc1)C2,-27.4
18,Cc1cccc(C(=O)Nc2nnc(COc3ccccc3)s2)c1,5.6
19,CO/N=C(/C(=O)N[C@@H]1C(=O)N2C(C(=O)[O-])=CCS[C@H]12)c1cnc(N)s1.[Na+],19.1
20,Cn1c(=O)cc(SCC(=O)NCc2ccc(F)cc2)c2ccccc21,-17.4
21,O=C1c2ccccc2-c2nc3ccccc3cc21,18.3
22,CC(OC(=O)CCc1nc2ccccc2[nH]c1=O)c1ccccc1 (stereo not drawn),-5.1
23,Cc1c(OCc2nn[nH]n2)ccc2c3c(c(=O)oc12)CCCC3,-4.83

row,SMILES,"hERG current change (%, negative = inhibition) at 10uM [%]"
1,CC1=NN(C(=O)CCc2ccccc2)C(O)(c2ccncc2)C1 (stereo not drawn),3.31
2,CCOc1ccc(CC(=O)NCCS(=O)(=O)N2CCN(c3ccccc3)CC2)cc1,11.2
3,CC(C)(C)NC(=O)c1cc(NC(=O)c2cccs2)cc(NC(=O)c2cccs2)c1,1.07
4,Cc1c(Cl)cccc1-n1c(SCC(=O)NCc2cccs2)nnc1-c1ccncc1,-29.1
5,O=C(CSc1nnnn1C1CCCCC1)NCc1ccco1,4.92
6,O=C(CCc1nnc2ccc(NCc3ccco3)nn12)Nc1ccc(F)cc1F,-4.76
7,COc1ccc(Cl)cc1C(=O)NC(C)C,2.67
8,Cc1ccccc1NC(=O)Cn1nnc2c(cnn2-c2ccc(F)cc2)c1=O,1.68
9,COCCn1c(=O)c2ccccc2c2ccccc2c1=O,10.2
10,O=C1CC(N(CCc2ccccc2)C(=S)Nc2ccccc2)C(=O)N1c1ccc(Br)cc1 (stereo not drawn),-4.13
11,CCOC(=O)C1CCCN(C(=O)Cn2ncc3c([nH]c4ccc(C)cc43)c2=O)C1 (stereo not drawn),-11.1
12,COc1cc2c3c([nH]c2cc1F)C(=O)NCC3,7.72
13,Cc1ccc(S(=O)(=O)CC(=O)N(C)C)cc1,7.19
14,O=C(COC(=O)c1ccccc1-n1cnnn1)c1ccccc1,4.94
15,O=C(CN1CCN(c2ccccc2F)CC1)c1c[nH]c2ccc(F)cc12,-11.7
16,CSCC[C@H](NC(=O)C1=NN(c2c(F)c(F)cc(F)c2F)C(=O)CC1)c1nc2ccccc2[nH]1,-13.3
17,CC1(C)Cc2c(sc3nc(-c4ccccc4Cl)n(N)c(=O)c23)CO1,-0.307
18,O=C(CCl)N(c1ccccc1)c1c[nH]c2ccccc12,3.24
19,CCN(CC)C(=O)CN(c1cc2c(cc1OC)oc1ccccc12)S(=O)(=O)c1ccccc1,0.38
20,CCSCc1nnc(SCC(=O)Nc2nccs2)n1CC,8.61
21,O=C(NCC1CCCO1)c1ccc(NC(=O)c2ccc(Br)cc2)cc1 (stereo not drawn),9.76
22,NS(=O)(=O)c1ccc(NC(NC(=O)c2cccnc2)C(Cl)(Cl)Cl)cc1 (stereo not drawn),6.08

# Source: paper PMC4336329 (PLoS ONE, 2015)
